# Measurements: the supplement of paper PMC12217912
# This is one part of the list. Sequences were assembled here from the parent chain. Inactive controls read about 0.05.
# B1: TEV protease; numbered along this chain (parent)
# chain: MGESLFKGPRDYNPISSSICHLTNESDGHTTSLYGIGFGPFIITNKHLFRRNNGTLVVQSLHGVFKVKDTTTLQQHLVDGRDMIIIRMPKDFPPFPQKLKFREPQREERICLVTTNFQTKSMSSMVSDTSCTFPSGDGIFWKHWIQTKDGQCGSPLVSTRDGFIVGIHSASNFTNTNNYFTSVPKNFMELLTNQEAQQWVSGWRLNADSVLWGGHKVFMVKPEEPFQPVKEATQL
# Variants of: B1
# Assay: raw area under fraction-flipped curve 0-4 h after induction (AUC4h, not background-subtracted), DNA-recorder readout of cleavage of the substrate (dimensionless); higher = more cleavage of the substrate by the protease variant
# Conditions: temperature: 34 °C; time window: 0-4 h after rhamnose induction
# Experimental: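 In vivo DNA recorder in E. coli TOP10(DE3) ΔrhaA at 34 °C. Each TEVp single-site mutant (parent TEVp 0) is paired with a single-site variant of the 7-mer TEVs (canonical ENLYFQ|S). The substrate sits between flexible linkers in a Bxb1-sfGFP-TEVs-SsrA fusion, so cleavage stabilises Bxb1 and speeds flipping of a recombination array, read by NGS. The value is the raw area under the fraction-flipped curve over 0-4 h after rhamnose induction (AUC4h), with ≥20 reads per time point. It is not background-subtracted; inactive controls average about 0.047.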
# 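Also: Bxb1 expression induced with 0.2% (w/v) L-rhamnose at OD600 near 0.5, cultures sampled hourly, flipped fraction per protease–substrate barcode pair counted by paired-end Illumina sequencing.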
Variant,area with substrate CNLYFQS,area with substrate DNLYFQS,area with substrate INLYFQS,area with substrate KNLYFQS,area with substrate TNLYFQS,area with substrate WNLYFQS,area with substrate HNLYFQS,area with substrate MNLYFQS,area with substrate PNLYFQS,area with substrate YNLYFQS,area with substrate FNLYFQS,area with substrate GNLYFQS,area with substrate LNLYFQS,area with substrate NNLYFQS,area with substrate QNLYFQS,area with substrate SNLYFQS,area with substrate VNLYFQS
MGESLFKGPRDYNPISSSICHLTNESDGHTTSLYGIGFGPFIITNKHLFRRNNGTLVVQSLHGVFKVKDTTTLQQHLVDGRDMIIIRMPKDFPPFPQKLKFREPQREERICLVTTNFQTKSMSSMCSDTSCTFPSGDGIFWKHWIQTKDGQCGSPLVSTRDGFIVGIHSASNFTNTNNYFTSVPKNFMELLTNQEAQQWVSGWRLNADSVLWGGHKVFMVKPEEPFQPVKEATQL [V126C],0.0811,0.0645,0.0751,0.0639,0.064,0.064,–,–,–,–,–,–,–,–,–,–,–
MGESLFKGPRDYNPISSSICHLTNESDGHTTSLYGIGFGPFIITNKHLFRRNNGTLVVQSLHGVFKVKDTTTLQQHLVDGRDMIIIRMPKDFPPFPQKLKFREPQREERICLVTTNFQTKSMSSMISDTSCTFPSGDGIFWKHWIQTKDGQCGSPLVSTRDGFIVGIHSASNFTNTNNYFTSVPKNFMELLTNQEAQQWVSGWRLNADSVLWGGHKVFMVKPEEPFQPVKEATQL [V126I],0.0774,0.0616,0.0627,0.075,0.0617,0.063,0.0721,0.0903,0.0758,0.0618,–,–,–,–,–,–,–
MGESLFKGPRDYNPISSSICHLTNESDGHTTSLYGIGFGPFIITNKHLFRRNNGTLVVQSLHGVFKVKDTTTLQQHLVDGRDMIIIRMPKDFPPFPQKLKFREPQREERICLVTTNFQTKSMSSMVIDTSCTFPSGDGIFWKHWIQTKDGQCGSPLVSTRDGFIVGIHSASNFTNTNNYFTSVPKNFMELLTNQEAQQWVSGWRLNADSVLWGGHKVFMVKPEEPFQPVKEATQL [S127I],0.0675,0.106,0.0676,0.0793,0.0681,0.0674,0.0689,0.0606,0.0654,0.0452,0.0632,0.0647,0.0654,0.0648,0.0546,0.0629,0.0511
MGESLFKGPRDYNPISSSICHLTNESDGHTTSLYGIGFGPFIITNKHLFRRNNGTLVVQSLHGVFKVKDTTTLQQHLVDGRDMIIIRMPKDFPPFPQKLKFREPQREERICLVTTNFQTKSMSSMVLDTSCTFPSGDGIFWKHWIQTKDGQCGSPLVSTRDGFIVGIHSASNFTNTNNYFTSVPKNFMELLTNQEAQQWVSGWRLNADSVLWGGHKVFMVKPEEPFQPVKEATQL [S127L],0.0692,0.0842,–,–,0.0752,–,0.0543,–,–,–,–,0.0609,–,–,–,0.0711,–
MGESLFKGPRDYNPISSSICHLTNESDGHTTSLYGIGFGPFIITNKHLFRRNNGTLVVQSLHGVFKVKDTTTLQQHLVDGRDMIIIRMPKDFPPFPQKLKFREPQREERICLVTTNFQTKSMSSMVSDLSCTFPSGDGIFWKHWIQTKDGQCGSPLVSTRDGFIVGIHSASNFTNTNNYFTSVPKNFMELLTNQEAQQWVSGWRLNADSVLWGGHKVFMVKPEEPFQPVKEATQL [T129L],0.0705,0.0794,–,–,0.0416,0.0593,0.056,0.0665,0.0528,–,0.0597,0.0841,0.0736,–,0.0621,0.0614,0.0331
MGESLFKGPRDYNPISSSICHLTNESDGHTTSLYGIGFGPFIITNKHLFRRNNGTLVVQSLHGVFKVKDTTTLQQHLVDGRDMIIIRMPKDFPPFPQKLKFREPQREERICLVTTNFQTKSMSSMVSDTECTFPSGDGIFWKHWIQTKDGQCGSPLVSTRDGFIVGIHSASNFTNTNNYFTSVPKNFMELLTNQEAQQWVSGWRLNADSVLWGGHKVFMVKPEEPFQPVKEATQL [S130E],0.0703,0.0844,–,–,–,–,0.0557,0.0606,0.0634,–,–,–,0.0594,–,–,0.0644,0.0674
MGESLFKGPRDYNPISSSICHLTNESDGHTTSLYGIGFGPFIITNKHLFRRNNGTLVVQSLHGVFKVKDTTTLQQHLVDGRDMIIIRMPKDFPPFPQKLKFREPQREERICLVTTNFQTKSMSSMVSDTVCTFPSGDGIFWKHWIQTKDGQCGSPLVSTRDGFIVGIHSASNFTNTNNYFTSVPKNFMELLTNQEAQQWVSGWRLNADSVLWGGHKVFMVKPEEPFQPVKEATQL [S130V],0.0691,0.0842,0.0589,0.0602,0.0847,0.0367,0.0813,0.0605,0.0663,0.0699,0.0737,0.0704,0.0566,0.0789,–,–,–
MGESLFKGPRDYNPISSSICHLTNESDGHTTSLYGIGFGPFIITNKHLFRRNNGTLVVQSLHGVFKVKDTTTLQQHLVDGRDMIIIRMPKDFPPFPQKLKFREPQREERICLVTTNFQTKSMSSMVSDTSMTFPSGDGIFWKHWIQTKDGQCGSPLVSTRDGFIVGIHSASNFTNTNNYFTSVPKNFMELLTNQEAQQWVSGWRLNADSVLWGGHKVFMVKPEEPFQPVKEATQL [C131M],0.075,0.0691,–,–,0.107,–,0.0768,0.0728,0.0804,–,0.0772,0.0548,–,–,–,–,–
MGESLFKGPRDYNPISSSICHLTNESDGHTTSLYGIGFGPFIITNKHLFRRNNGTLVVQSLHGVFKVKDTTTLQQHLVDGRDMIIIRMPKDFPPFPQKLKFREPQREERICLVTTNFQTKSMSSMVSDTSCCFPSGDGIFWKHWIQTKDGQCGSPLVSTRDGFIVGIHSASNFTNTNNYFTSVPKNFMELLTNQEAQQWVSGWRLNADSVLWGGHKVFMVKPEEPFQPVKEATQL [T132C],0.0697,0.079,0.0672,0.0759,0.0656,0.0576,0.0564,–,0.064,–,–,0.053,0.0699,–,–,0.0549,–
MGESLFKGPRDYNPISSSICHLTNESDGHTTSLYGIGFGPFIITNKHLFRRNNGTLVVQSLHGVFKVKDTTTLQQHLVDGRDMIIIRMPKDFPPFPQKLKFREPQREERICLVTTNFQTKSMSSMVSDTSCEFPSGDGIFWKHWIQTKDGQCGSPLVSTRDGFIVGIHSASNFTNTNNYFTSVPKNFMELLTNQEAQQWVSGWRLNADSVLWGGHKVFMVKPEEPFQPVKEATQL [T132E],0.0479,0.0494,0.047,0.0406,–,0.0579,0.0492,–,0.033,–,0.0471,0.0463,–,0.0727,–,–,–
